According to PubChem BioAssay AID1159614 (National Center for Advancing Translational Sciences (NCATS), 2016):
The whole screen tested about 45,000 compounds, of which about 65 (0.1%) were called active. Calls come from the whole dose curve; as a rule, active = well fitted activation curve with a large enough effect; inconclusive = small, poorly fitted or top-dose-only effect; inactive = no such curve, though single readings can be large or run the other way. The list shows a part of the results.

What follows are compounds tested against Galactocerebrosidase (Homo sapiens) (UniProt P54803) (assay: A Novel Cell-Based Assay to Identify Small Molecules for B -Galactocerebrosidase). Settings: 145M-Twi-hGALC-G270D cells (Twitcher mouse brain line with human GALC G270D), HMU-beta-Gal fluorescence, 48 h; series mostly up to 57.5 µM; activation: at the top concentration.
Procedure, shortened: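 Live 145M-Twi cells (Twitcher mouse brain-derived, GALC-null) stably expressing human GALC-G270D, with a wild-type GALC line, were compound-treated. Residual GALC activity was then read as fluorescence from 0.1 mM final HMU-β-gal at pH 5.2; higher signal means activation.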
Note: 0% is about no effect; nearly all actives have a fitted effect of over 65% in size.

UniProt P54803, sequence (P54803 whole entry, looked up): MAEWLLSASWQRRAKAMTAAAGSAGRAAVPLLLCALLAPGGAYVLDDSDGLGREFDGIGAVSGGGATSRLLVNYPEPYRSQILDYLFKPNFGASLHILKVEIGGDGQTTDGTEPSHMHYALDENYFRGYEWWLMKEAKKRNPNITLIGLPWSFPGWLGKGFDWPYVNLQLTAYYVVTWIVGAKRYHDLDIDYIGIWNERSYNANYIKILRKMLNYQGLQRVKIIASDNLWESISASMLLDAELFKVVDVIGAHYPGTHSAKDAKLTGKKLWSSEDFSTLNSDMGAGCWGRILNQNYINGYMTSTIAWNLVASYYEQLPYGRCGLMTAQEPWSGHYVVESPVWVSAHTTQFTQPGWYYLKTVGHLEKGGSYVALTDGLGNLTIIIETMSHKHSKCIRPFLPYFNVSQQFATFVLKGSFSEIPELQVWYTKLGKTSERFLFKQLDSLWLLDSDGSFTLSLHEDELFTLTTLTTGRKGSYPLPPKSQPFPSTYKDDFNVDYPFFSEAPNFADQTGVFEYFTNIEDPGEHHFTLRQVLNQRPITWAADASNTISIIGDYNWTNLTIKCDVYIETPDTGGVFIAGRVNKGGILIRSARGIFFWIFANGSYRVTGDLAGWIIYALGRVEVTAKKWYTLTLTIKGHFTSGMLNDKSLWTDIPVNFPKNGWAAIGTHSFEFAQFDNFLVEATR

activation, inactive:
Cc1ccc(N(C)C(=O)c2cc(S(=O)(=O)N3CCOCC3)cn2C)cc1 -0.713%
CCCN(Cc1cccs1)C(=O)Nc1cc(OC)ccc1OC -19.7%
COc1ccc(CCNC(=O)CCCCn2c(=O)c3ccccc3n(Cc3ccccc3Cl)c2=O)cc1OC -20.6%
COc1ccc(OC)c(S(=O)(=O)NCCc2csc(-c3cccc(F)c3)n2)c1 2.89%
CCOC(=O)c1c(C)[nH]c(C)c1S(=O)(=O)NCC(=O)N1CCN(c2ccccc2OC)CC1 -15.2%
CCN(CC)C(=O)Nc1ccc2c(c1)N(Cc1ccccc1)C(=O)c1ccccc1S2 -11.4%
Cc1ccc(-n2nc3c(N4CCC(C(=O)NCc5ccccc5Cl)CC4)nnc(C)c3c2C)cc1 -6.12%
CC(=O)c1ccc(NC(=O)CCOc2ccccc2)cc1 -10.5%
COc1cc(C2c3c(-c4ccccc4O)n[nH]c3C(=O)N2Cc2ccco2)ccc1OCC(C)C (configuration not stated) -11.8%
CCOc1ccccc1NC(=O)C(CC)n1c(C(=O)OC)cc2occc21 (configuration not stated) -14.1%
COc1cc(C(=O)NC(c2ccc(Cl)cc2)c2cc(Cl)c3cccnc3c2O)cc(OC)c1OC (configuration not stated) -15.1%
CCc1cccc(C)c1NC(=O)CN1CCCN(Cc2ccccc2Cl)S1(=O)=O 3.15%
O=S(=O)(c1ccc(-n2cnnn2)cc1)N1CCN(c2cccc(Cl)c2)CC1 17.1%
Cc1c(C(=O)N2CCCCCC2)c(S(=O)(=O)N(Cc2ccccc2)C(C)(C)C)c(C)n1C -13.3%
COc1ccc(Nc2oc(/C=C/c3cccc(OC)c3)nc2C#N)cc1 2%
CCCn1c(=NC(=O)c2cc3ccccc3o2)c(C(=O)OCC)cc2c(=O)n3ccccc3nc21 -9.13%
CCCCN(CC)CCNC(=O)C1CCCN(S(=O)(=O)c2cccc3nsnc23)C1 (configuration not stated) -14.9%
O=C(Cn1ncc2ccsc2c1=O)N1CCN(c2ccccc2F)CC1 -6.07%
Cc1ccc(-n2c(=O)c3cccnc3n2CC(=O)Nc2cc(Cl)ccc2C)cc1 -0.918%
O=c1cc(-c2ccccc2)n2c(SCc3c(F)cccc3Cl)nnc2[nH]1 -19.5%
COc1ccc(C(CC(=O)NCc2ccccc2Cl)N2Cc3ccccc3C2=O)cc1OC (configuration not stated) -11.5%
CCCc1nn2c(=O)cc(COc3ccc(/C=C(\C#N)C(=O)Nc4ccccc4)cc3)nc2s1 -7.51%
CC(C)CC(=O)NC1(C(F)(F)F)C(=O)Nc2c1c(=O)[nH]c(=O)n2-c1ccccc1 (configuration not stated) -9.27%
Cc1ccc(NC(=O)C(=O)NCc2ccco2)cc1 4.53%
Cc1ccc(NC(=O)CN(C)S(=O)(=O)c2cnc[nH]2)cc1 -14.1%
COc1ccccc1OCC(=O)NCC(c1ccc(Cl)cc1)N1CCOCC1 (configuration not stated) -10.9%
Cc1ccc(NC(=O)Cn2c(=O)n(CCCCC(=O)NCc3ccccc3Cl)c(=O)c3ccccc32)cc1 -8.08%
Cc1ccc(C)c(CN2C(=O)c3ccccc3S(=O)c3ccc(C(=O)N4CCN(c5cccc(Cl)c5)CC4)cc32)c1 (configuration not stated) -4.03%
CCc1ccc(C2=NN(CCC(=O)NCCc3ccc(OC)c(OC)c3)C(=O)CC2)cc1 -9.21%
CCCOc1ccc(-c2nonc2NC(=O)c2cc(OC)c(OC)c(OC)c2)cc1OCCC -7.66%
CC(C)c1nn2c(=O)cc(COC(=O)c3cccc(NC(=O)c4cccs4)c3)nc2s1 -4.78%
CCc1ccccc1NC(=O)CCOc1ccccc1 -12.7%
Cc1ccc(N2CC(NC(=O)c3cc4ccccc4o3)CC2=O)cc1C (configuration not stated) -4.39%
COc1ccccc1CNS(=O)(=O)c1ccc(-c2cnc(C3CC3)o2)cc1 -5.19%
Cn1ccc2c(OCC(=O)NCc3ccccc3)cccc2c1=O -3.57%
COCCNC(=O)c1c[nH]c2ccc(S(=O)(=O)Nc3ccc(F)cc3F)cc2c1=O -13.2%
CCOC(=O)c1cnc2nc(NCc3cccc(Br)c3)[nH]n2c1=O 2.26%
COc1ccc(CSc2nc3ccncc3n2CC(=O)Nc2ccc(C)c(F)c2)cc1 -7.34%
CCc1ccccc1NC(=O)Cn1c(=O)n(-c2ccc(CC(=O)NCC3CCCO3)cc2)c(=O)c2ccccc21 (configuration not stated) 1.71%
COc1ccc(CNC(=O)c2ccc3c(c2)N(Cc2ccc(C)cc2)CCS3)cc1 -15.4%
Cc1ccccc1C(=O)Nc1ccc2nc(SCC(=O)N3CCc4ccccc43)sc2c1 -19%
COc1ccc2c(c1)Cc1sc(NC(=O)c3cccc(C)c3)nc1-2 -21.3%
Cc1ccc(CNC(=O)C2COc3ccccc3C2)cc1 (configuration not stated) 5.18%
COc1ccccc1CNC(=O)CC(c1ccc(C)cc1)N1Cc2ccccc2C1=O (configuration not stated) 10.3%
COc1ccc(CCNC(=O)CCS(=O)(=O)c2cc(Br)cc3c2N(C(C)=O)CC3)cc1OC -14.2%
Cc1cc(C)cc(-n2ccn(Cc3ccccc3C)c(=O)c2=O)c1 -0.0382%
Cc1cc(C)cc(NC(=O)C2CCCN2S(=O)(=O)c2ccc3c(c2)CCCC(=O)N3)c1 (configuration not stated) -8.89%
Cc1ccccc1NC(=O)c1sc2nc3n(c(=O)c2c1C)CCC3 -16.9%
Cc1ccc(OCC(=O)OC2=C(C(=O)c3ccccc3)N(C)S(=O)(=O)c3ccccc32)cc1 -24.2%
CCc1ccc(NS(=O)(=O)c2cc(-c3cnc(C4CC4)o3)ccc2C)cc1 14.2%
Cc1oc(-c2ccc(C(=O)NCCC(C)C)cc2)nc1CN1CCc2ccccc21 -24.4%
Clc1ccc(-c2nc3c4cnn(-c5ccccc5Br)c4ncn3n2)c(Cl)c1 -9.41%
COC(=O)CSc1nc2sc3c(c2c(=O)n1-c1ccccc1C)CC(C)(C)OC3 -15.5%
Cc1ccc(-n2nnc(-c3nc(-c4cccs4)no3)c2N)c(C)c1 -13.4%
O=S(=O)(Nc1cccc(C(F)(F)F)c1)c1ccc(-c2cnc(C3CC3)o2)cc1 -3.1%
COc1ccc(S(=O)(=O)c2c(C(=O)c3ccc(C)c(C)c3)cnc3ccc(F)cc23)cc1 -7.97%
CC(C)c1ccc(OCC(=O)Nc2c(C(=O)c3ccc(F)cc3)oc3ccccc23)cc1 -0.77%
COc1ccc(S(=O)(=O)NCc2cccn2Cc2cccc(C)c2)cc1 0.0761%
CCCCCSc1nc2sc3c(c2c(=O)n1-c1ccc(OC)cc1)CCN(C(C)=O)C3 -2.17%
COc1ccccc1NC(=O)CC(c1cc(OC)c(OC)c(OC)c1)N1Cc2ccccc2C1=O (configuration not stated) -15.8%
COc1ccccc1CNC(=O)Cn1ncn2c(cc3sccc32)c1=O -19%
Cc1ccc(Nc2c(-c3ccsc3)nc3c(C)cccn23)cc1 -50.1%
